Results reported in PubChem BioAssay AID1963873 (Molecular Pharmacology Branch, DTP, NCI, 2024).
For part of its entries the source gives two or more results. This is not the full list of results. There may be further records. Results that share an entry repeat one measurement (runs, samples, wells, individuals or studies). Brackets with × give the number of equal values in this list.

Test system: 276233-004-R-J1-PDC KRAS spheroids with HUVEC/MSC, viability
Assay: Anticancer human tumor 276233-004-R-J1-PDC patient-derived colon adenocarcinoma cell line growth inhibition [KRAS2]
Settings: for viability, T/C: stronger effect = lower value; for IC50: compound alone
Description: Multicellular complex tumor spheroid response to RAS pathway inhibitors in combination with a targeted agents in patient-derived cell lines with oncogenic KRAS variants from multiple cancer types
A high-throughput screen of multi-cell type tumor spheroids was designed to identify active combinations of targeted small molecules and KRAS pathway inhibitors. Complex spheroids include a stromal component modeled by human endothelial cells (HUVEC) and fibroblasts modeled by human mesenchymal stem cells (MSCs). The concentration ranges selected for each drug and investigational agent were based upon clinically achievable concentrations if the clinical Cmax of the agent was known.
Compounds. The drugs and investigational agents: BI-3406 (NSC825286), BAY-293 (NSC824723), batoprotafib (TNO155; NSC825523), sotorasib (AMG 510; NSC818433), MRTX1257 (NSC819558), elimusertib (BAY 1895344; NSC800525), molibresib (GSK525762; NSC774829), temuterkib (LY3214996; NSC803410), venetoclax (NSC766270), alisertib (NSC759677), olaparib (NSC753686), talazoparib (NSC767125), erdafitinib (NSC781556), ipatasertib (NSC767898), cabozantinib (NSC761068), nintedanib (NSC756659), abemaciclib (NSC768073), docetaxel (NSC628503), trametinib (NSC758246), and sapanisertib (NSC764658) were obtained from the National Cancer Institute (NCI) Developmental Therapeutics Program Chemical Repository. The FDA-approved anticancer drug set is available from the Developmental Therapeutics Program. […] The stock solutions were prepared in dimethyl sulfoxide (DMSO, Sigma-Aldrich, St. Louis, MO, cat. D2650) at 800-fold the tested concentration and stored at -70 degrees C prior to their use. All drugs and investigational agents were tested over a range starting from a high concentration at or near the clinical Cmax and decreasing in half-log increments. If the clinical Cmax for an agent had not been determined, the highest concentration tested was 10 microM.
Cell Culture. All cells were maintained in an incubator at 37 degrees C and 5% CO2 with 95% humidity. The PDC lines were cultured according to standard operating procedures established by the NCI PDMR (https://pdmr.cancer.gov/sops/default.htm). Briefly, all PDCs were thawed and cultured in Matrigel-coated flasks prepared with a working solution of 1X Ham's F-12 nutrient mix, without supplementation (Invitrogen, Waltham, MA, cat. 11765054), 100 U/mL penicillin-streptomycin (Invitrogen, cat. 15140122), and 2.5% Matrigel (Corning Inc., Corning, NY, cat. 354248) for the first three passages. All PDCs were cultured in complete DMEM/F-12 media containing advanced DMEM/F-12 (Invitrogen, cat. 12634028), 4.9% defined fetal bovine serum, heat inactivated (HyClone Laboratories Inc., Logan, UT, cat. SH30070.03HI), 389 ng/mL hydrocortisone (Sigma-Aldrich, cat. H4001), 9.7 ng/mL human EGF recombinant protein (Invitrogen, cat. PHG0313), 23.4 microg/mL adenine (Sigma-Aldrich, cat. A2786), 97.3 U/mL penicillin-streptomycin (Invitrogen, cat. 15140122), 1.9 mM L-glutamine (Invitrogen, cat. 25030081), and 9.7 microM Y-27632 dihydrochloride (Tocris Bioscience, Bristol, United Kingdom, cat. 1254). The PDCs were cultured in complete DMEM/F12 media without 9.7 microM Y-27632 dihydrochloride for at least two passages prior to the screen. The established cell line HOP-62 was cultured in RPMI 1640 medium, HEPES (Invitrogen, cat. 22400105) with 10% defined fetal bovine serum (HyClone Laboratories Inc., cat. SH30070.03) and 2 mM L-glutamine (Invitrogen, cat. 25030081). The pooled donor HUVEC were cultured in endothelial cell growth medium 2 (PromoCell, Heidelberg, Germany, cat. C-22011) and the hMSC were cultured in mesenchymal stem cell growth medium 2 (PromoCell, cat. C-28009). For all experiments, HUVEC and hMSC were used at passages </=5, while the malignant cell lines were used at passages </=15. […]
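Note: cells exposed to agents for seven days before viability read.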
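Throughout, for viability, T/C: 100% = DMSO vehicle control wells and lower values mean fewer viable cells.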

What does the source list for O=C(c1cc(Cc2n[nH]c(=O)c3ccccc23)ccc1F)N1CCN(C(=O)C2CC2)CC1?
viability, T/C (compound alone 0.0316 µM): 103, 86.7, 107, 114, 91.9%; viability, T/C (compound alone 3.16 µM): 97, 88.6, 119, 96, 81.3%; viability, T/C (compound alone 10 µM): 85.9, 108, 77.3, 90.6, 87.6%

With Cn1nccc1Nc1nccc(-c2cc3c(s2)C(C)(C)N(CCN2CCOCC2)C3=O)n1 as the compound, how does the IC50 read?
Its IC50 is 8.4 µM, > 10 µM, 8.89 µM, 8.93 µM, 5.61 µM.

What about the viability, T/C (compound alone 0.0316 µM) of the same compound?
Its viability, T/C is 95.2, 111 (2×), 122, 86.7%.

Which results are given for COc1cc2nccc(Oc3ccc(NC(=O)C4(C(=O)Nc5ccc(F)cc5)CC4)cc3)c2cc1OC?
viability, T/C (compound alone 0.316 µM): 89.6, 100, 79.2, 113, 77.7%; viability, T/C (compound alone 1 µM): 91.6, 101, 84, 113, 79.6%; viability, T/C (compound alone 10 µM): 112, 96.9, 96.2, 104, 83.6%

CC(=O)OC12COC1CC(O)C1(C)C(=O)C(O)C3=C(C)C(OC(=O)C(O)C(NC(=O)OC(C)(C)C)c4ccccc4)CC(O)(C(OC(=O)c4ccccc4)C21)C3(C)C (configuration not stated) was tested. Which viability, T/C (compound alone 0.0316 µM) did it give?
Its viability, T/C is 92.2, 75.5, 84.8, 101, 71.1%.

What about the viability, T/C (compound alone 0.1 µM) of the same compound?
Its viability, T/C is 88, 86.2, 90.9, 92.3, 55%.

With CC(=O)Nc1cccc(-n2c(=O)n(C3CC3)c(=O)c3c(Nc4ccc(I)cc4F)n(C)c(=O)c(C)c32)c1 as the compound, how does the viability, T/C (compound alone 0.001 µM) read?
Its viability, T/C is 73, 69.6, 78.9, 98.9, 79.5%.

What does the source list for COC(=O)c1ccc2c(C(=Nc3ccc(N(C)C(=O)CN4CCN(C)CC4)cc3)c3ccccc3)c(O)[nH]c2c1?
viability, T/C (compound alone 3.16 µM): 106, 116, 90.7, 93.3, 99.6%; viability, T/C (compound alone 10 µM): 92.7, 98.4, 111, 81.3, 101%

Which viability, T/C (compound alone 0.0316 µM) does the source give for CC1COCCN1c1cc(-c2ccnn2C)c2ccnc(-c3ccn[nH]3)c2n1 (configuration not stated) here?
Its viability, T/C is 91.3, 103, 112, 78.7, 111%.

And the viability, T/C (compound alone 0.316 µM)?
Its viability, T/C is 80.8, 72.3, 93.7, 68, 82.8%.

What about the viability, T/C (compound alone 1 µM) of the same compound?
Its viability, T/C is 76.2, 67.7, 68.7, 43.8, 78.5%.

And the viability, T/C (compound alone 3.16 µM)?
The viability, T/C was 63.3, 53.2, 66.2, 18.2, 52.2%.

Which viability, T/C (compound alone 0.0316 µM) does the source give for COc1cc(Nc2ncc3c(n2)-c2ccc(Cl)cc2C(c2c(F)cccc2OC)=NC3)ccc1C(=O)O here?
The viability, T/C was 84.5, 98, 120, 93.2, 104%.

What about the viability, T/C (compound alone 10 µM) of the same compound?
The viability, T/C was 84.3, 100, 92.1, 85.2, 69.7%.

CC1(C)CCC(CN2CCN(c3ccc(C(=O)NS(=O)(=O)c4ccc(NCC5CCOCC5)c([N+](=O)[O-])c4)c(Oc4cnc5[nH]ccc5c4)c3)CC2)=C(c2ccc(Cl)cc2)C1 was tested. Which viability, T/C (compound alone 3.16 µM) did it give?
Its viability, T/C is 106, 96.5, 83.1, 82.5, 73.1%.

What about the viability, T/C (compound alone 10 µM) of the same compound?
Its viability, T/C is 59.5, 52.4, 77, 65.4, 49.3%.

Which viability, T/C (compound alone 0.1 µM) does the source give for CNCc1ccccc1-c1csc(C(C)Nc2nc(C)nc3cc(OC)c(OC)cc23)c1 (configuration not stated) here?
Its viability, T/C is 102, 92.3, 73.8, 85.5, 100 (2×), 99.6, 94.1, 95, 108, 94.9, 114, 88.4, 111, 106, 97.7, 104%.

And the viability, T/C (compound alone 0.316 µM)?
The viability, T/C was 94.8 (2×), 88.2, 87.5, 92.7, 78.5, 95.8, 87, 89.4, 90.8, 89.9, 86.2, 109, 83.5, 94.5, 86.9, 88.8%.

What about the viability, T/C (compound alone 1 µM) of the same compound?
The viability, T/C was 111, 104, 85.8, 86.6, 71.1, 84, 65.9, 59.6, 44.1, 66.2, 62, 93.5, 81.5, 73.3, 89.5, 87.3, 73.2%.

What about the viability, T/C (compound alone 3.16 µM) of the same compound?
The viability, T/C was 99.1, 74.9, 4.66, 3.91, 0.7, 2.24, 1.03 (2×), 0.4, 0.68, 0.66, 0.65, 0.64, 1.93, 0.9, 4.3, 3.69%.

What about the IC50 (run of 07/12/2021) of the same compound?
The IC50 was 5.85, 4.64, 1.62, 1.66, 1.42, 1.61 µM.

With CC(C)NCC(C(=O)N1CCN(c2ncnc3c2C(C)CC3O)CC1)c1ccc(Cl)cc1 (configuration not stated) as the compound, how does the viability, T/C (compound alone 1 µM) read?
The viability, T/C was 71.3, 96.7, 83.3, 80.5, 67.8%.

And the viability, T/C (compound alone 3.16 µM)?
The viability, T/C was 75.2, 73.5, 73.8, 41.3, 81.3%.

Which results are given for COc1cc(OC)cc(N(CCNC(C)C)c2ccc3ncc(-c4cnn(C)c4)nc3c2)c1?
IC50: 4.97 µM, 5.63 µM, 6.09 µM, 943 nM, 4.55 µM; viability, T/C (compound alone 1 µM): 71.2, 79.8, 67.5, 35.3, 68.9%; viability, T/C (compound alone 3.16 µM): 62.5, 76.5, 71.9, 44.1, 62.7%; viability, T/C (compound alone 10 µM): 30.6, 27.2, 35.4, 0.53, 23.9%
